From the supplement of paper PMC8728848
Some of the results follow.

Columns and labels:
Experiment in all cases: glycan array binding signal (z-score within array); higher = stronger binding
Conditions in all cases: glycan notation: IUPAC condensed, linker removed
Fuc(a1-2)Gal = target: Fuc(a1-2)Gal
Method in brief: (§1)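 The Consortium for Functional Glycomics database supplied 3228 glycan arrays, of which those lacking an available protein sequence were dropped. The binding signal, a within-array Z-score, was averaged across arrays of the same protein sequence and across linkers. Negative scores can be read as non-binding.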

Fuc(a1-2)Gal(b1-3)GalNAc = target: Fuc(a1-2)Gal(b1-3)GalNAc
Method in brief: as §1

[1] = target: Fuc(a1-2)Gal(b1-3)GalNAc(b1-3)Gal
Method in brief: as §1

[2] = target: Fuc(a1-2)Gal(b1-3)GalNAc(b1-3)Gal(a1-4)Gal(b1-4)Glc
Method in brief: as §1

[3] = target: Fuc(a1-2)Gal(b1-3)GalNAc(b1-3)Gal(b1-4)Glc
Method in brief: as §1

[4] = target: Fuc(a1-2)Gal(b1-3)GalNAc(b1-4)[Neu5Ac(a2-3)]Gal(b1-4)Glc
Method in brief: as §1

[5] = target: Fuc(a1-2)Gal(b1-3)[Fuc(a1-4)]GlcNAc
Method in brief: as §1

Fuc(a1-2)Gal(b1-4)Glc = target: Fuc(a1-2)Gal(b1-4)Glc
Method in brief: as §1

Fuc(a1-2)Gal(b1-4)GlcNAc = target: Fuc(a1-2)Gal(b1-4)GlcNAc
Method in brief: as §1

[6] = target: Fuc(a1-2)Gal(b1-4)GlcNAc(b1-3)Gal(b1-4)GlcNAc
Method in brief: as §1

[7] = target: Fuc(a1-2)Gal(b1-4)GlcNAc(b1-3)Gal(b1-4)GlcNAc(b1-3)Gal(b1-4)GlcNAc
Method in brief: as §1

[8] = target: Fuc(a1-2)Gal(b1-4)[Fuc(a1-3)]GalNAc(b1-3)Gal(b1-4)[Fuc(a1-3)]GlcNAc
Method in brief: as §1

[9] = target: Fuc(a1-2)Gal(b1-4)[Fuc(a1-3)]GalNAc(b1-3)Gal(b1-4)[Fuc(a1-3)]GlcNAc(b1-3)Gal(b1-4)[Fuc(a1-3)]GalNAc
Method in brief: as §1

[10] = target: Fuc(a1-2)Gal(b1-4)[Fuc(a1-3)]GlcNAc
Method in brief: as §1

Fuc(a1-2)GlcNAc = target: Fuc(a1-2)GlcNAc
Method in brief: as §1

Fuc(a1-2)[Gal(a1-3)]Gal = target: Fuc(a1-2)[Gal(a1-3)]Gal
Method in brief: as §1

[11] = target: Fuc(a1-2)[Gal(a1-3)]Gal(b1-3)GlcNAc
Method in brief: as §1

[12] = target: Fuc(a1-2)[Gal(a1-3)]Gal(b1-4)Glc
Method in brief: as §1

[13] = target: Fuc(a1-2)[Gal(a1-3)]Gal(b1-4)GlcNAc
Method in brief: as §1

[14] = target: Fuc(a1-2)[Gal(a1-3)]Gal(b1-4)[Fuc(a1-3)]GlcNAc
Method in brief: as §1

[15] = target: Fuc(a1-2)[Gal(a1-4)]Gal(b1-4)GalNAc
Method in brief: as §1

[16] = target: Fuc(a1-2)[GalNAc(a1-3)]Gal
Method in brief: as §1

[17] = target: Fuc(a1-2)[GalNAc(a1-3)]Gal(b1-3)GlcNAc
Method in brief: as §1

[18] = target: Fuc(a1-2)[GalNAc(a1-3)]Gal(b1-4)Glc
Method in brief: as §1

[19] = target: Fuc(a1-2)[GalNAc(a1-3)]Gal(b1-4)GlcNAc
Method in brief: as §1

[20] = target: Fuc(a1-2)[GalNAc(a1-3)]Gal(b1-4)[Fuc(a1-3)]GlcNAc
Method in brief: as §1

[21] = target: Fuc(a1-2)[GalNAc(a1-4)]Gal(b1-4)GlcNAc
Method in brief: as §1

Fuc(a1-3)GlcNAc = target: Fuc(a1-3)GlcNAc
Method in brief: as §1

[22] = target: Fuc(a1-3)[Gal(b1-4)]GlcNAc
Method in brief: as §1

[23] = target: Fuc(a1-3)[Gal(b1-4)]GlcNAc(b1-4)Gal(b1-4)[Fuc(a1-3)]GlcNAc
Method in brief: as §1

[24] = target: Fuc(a1-3)[Gal(b1-4)]GlcNAc(b1-4)Gal(b1-4)[Fuc(a1-3)]GlcNAc(b1-4)Gal(b1-4)[Fuc(a1-3)]GlcNAc
Method in brief: as §1

[25] = target: Fuc(a1-3)[Gal3S(b1-4)]GlcNAc
Method in brief: as §1

[26] = target: Fuc(a1-3)[GalNAc(b1-4)]Gal(b1-4)GlcNAc
Method in brief: as §1

Fuc(a1-4)GlcNAc = target: Fuc(a1-4)GlcNAc
Method in brief: as §1

Fuc(b1-3)GlcNAc = target: Fuc(b1-3)GlcNAc
Method in brief: as §1

Gal(a1-2)Gal = target: Gal(a1-2)Gal
Method in brief: as §1

Gal(a1-3)Gal = target: Gal(a1-3)Gal
Method in brief: as §1

Gal(a1-3)Gal(b1-3)Glc = target: Gal(a1-3)Gal(b1-3)Glc
Method in brief: as §1

Gal(a1-3)Gal(b1-3)GlcNAc = target: Gal(a1-3)Gal(b1-3)GlcNAc
Method in brief: as §1

Gal(a1-3)Gal(b1-4)GlcNAc = target: Gal(a1-3)Gal(b1-4)GlcNAc
Method in brief: as §1

[27] = target: Gal(a1-3)Gal(b1-4)[Fuc(a1-3)]GalNAc
Method in brief: as §1

Gal(a1-3)GlcNAc = target: Gal(a1-3)GlcNAc
Method in brief: as §1

[28] = target: Gal(a1-3)[Gal(a1-4)]Gal(b1-4)GlcNAc
Method in brief: as §1

Gal(a1-4)Gal(b1-4)Gal = target: Gal(a1-4)Gal(b1-4)Gal
Method in brief: as §1

Gal(a1-4)Gal(b1-4)GalNAc = target: Gal(a1-4)Gal(b1-4)GalNAc
Method in brief: as §1

Gal(a1-4)GlcNAc = target: Gal(a1-4)GlcNAc
Method in brief: as §1

Gal(a1-6)Glc = target: Gal(a1-6)Glc
Method in brief: as §1

Gal(b1-2)Gal = target: Gal(b1-2)Gal
Method in brief: as §1

Gal(b1-3)Gal = target: Gal(b1-3)Gal
Method in brief: as §1

Gal(b1-3)GalNAc = target: Gal(b1-3)GalNAc
Method in brief: as §1

[29] = target: Gal(b1-3)GalNAc(b1-3)Gal(a1-4)Gal(b1-4)Glc
Method in brief: as §1

[30] = target: Gal(b1-3)GalNAc(b1-3)Gal(b1-4)Glc
Method in brief: as §1

[31] = target: Gal(b1-3)GalNAc(b1-3)Gal(b1-4)GlcNAc
Method in brief: as §1

[32] = target: Gal(b1-3)GalNAc(b1-4)Gal(b1-4)Glc
Method in brief: as §1

[33] = target: Gal(b1-3)GalNAc(b1-4)[Neu5Ac(a2-3)]Gal(b1-4)Glc
Method in brief: as §1

[34] = target: Gal(b1-3)[Fuc(a1-4)]GlcNAc
Method in brief: as §1

[35] = target: Gal(b1-3)[Fuc(a1-4)]GlcNAc(b1-3)Gal(b1-4)GlcNAc
Method in brief: as §1

[36] = target: Gal(b1-3)[Fuc(a1-4)]GlcNAc(b1-3)Gal(b1-4)[Fuc(a1-3)]GlcNAc
Method in brief: as §1

[37] = target: Gal(b1-3)[GlcNAc(b1-6)]GalNAc
Method in brief: as §1

[38] = target: Gal(b1-3)[GlcNAc(b1-6)]GlcNAc
Method in brief: as §1

B1: FBG5 (Homo sapiens), Q8NI29 (protein)
chain: MGASVSRGRAARVPAPEPEPEEALDLSQLPPELLLVVLSHVPPRTLLGRCRQVCRGWRALVDGQALWLLILARDHGATGRALLHLARSCQSPARNARPCPLGRFCARRPIGRNLIRNPCGQEGLRKWMVQHGGDGWVVEENRTTVPGAPSQTCFVTSFSWCCKKQVLDLEEEGLWPELLDSGRIEICVSDWWGARHDSGCMYRLLVQLLDANQTVLDKFSAVPDPIPQWNNNACLHVTHVFSNIKMGVRFVSFEHRGQDTQFWAGHYGARVTNSSVIVRVRLS
- glycan array binding signal (z-score) (Fuc(a1-2)Gal): 0.101
- glycan array binding signal (z-score) (Fuc(a1-2)Gal(b1-3)GalNAc): 0.003
- glycan array binding signal (z-score) [1]: 0.14
- glycan array binding signal (z-score) [2]: 0.044
- glycan array binding signal (z-score) [3]: -0.166
- glycan array binding signal (z-score) [4]: -0.145
- glycan array binding signal (z-score) [5]: -0.097
- glycan array binding signal (z-score) (Fuc(a1-2)Gal(b1-4)Glc): 0.099
- glycan array binding signal (z-score) (Fuc(a1-2)Gal(b1-4)GlcNAc): 0.159
- glycan array binding signal (z-score) [6]: 0.235
- glycan array binding signal (z-score) [7]: 0.126
- glycan array binding signal (z-score) [8]: 0.257
- glycan array binding signal (z-score) [9]: 0.353
- glycan array binding signal (z-score) [10]: 0.173
- glycan array binding signal (z-score) (Fuc(a1-2)GlcNAc): 0.024
- glycan array binding signal (z-score) (Fuc(a1-2)[Gal(a1-3)]Gal): -0.143
- glycan array binding signal (z-score) [11]: -0.211
- glycan array binding signal (z-score) [12]: -0.211
- glycan array binding signal (z-score) [13]: -0.173
- glycan array binding signal (z-score) [14]: 0.248
- glycan array binding signal (z-score) [15]: -0.19
- glycan array binding signal (z-score) [16]: -0.147
- glycan array binding signal (z-score) [17]: 0.149
- glycan array binding signal (z-score) [18]: 0.967
- glycan array binding signal (z-score) [19]: -0.085
- glycan array binding signal (z-score) [20]: -0.056
- glycan array binding signal (z-score) [21]: -0.16
- glycan array binding signal (z-score) (Fuc(a1-3)GlcNAc): 0.417
- glycan array binding signal (z-score) [22]: -0.107
- glycan array binding signal (z-score) [23]: 0.032
- glycan array binding signal (z-score) [24]: 0.032
- glycan array binding signal (z-score) [25]: -0.187
- glycan array binding signal (z-score) [26]: -0.19
- glycan array binding signal (z-score) (Fuc(a1-4)GlcNAc): -0.064
- glycan array binding signal (z-score) (Fuc(b1-3)GlcNAc): -0.186
- glycan array binding signal (z-score) (Gal(a1-2)Gal): -0.096
- glycan array binding signal (z-score) (Gal(a1-3)Gal): -0.047
- glycan array binding signal (z-score) (Gal(a1-3)Gal(b1-3)Glc): -0.18
- glycan array binding signal (z-score) (Gal(a1-3)Gal(b1-3)GlcNAc): -0.215
- glycan array binding signal (z-score) (Gal(a1-3)Gal(b1-4)GlcNAc): -0.202
- glycan array binding signal (z-score) [27]: -0.177
- glycan array binding signal (z-score) (Gal(a1-3)GlcNAc): -0.153
- glycan array binding signal (z-score) [28]: -0.186
- glycan array binding signal (z-score) (Gal(a1-4)Gal(b1-4)Gal): -0.074
- glycan array binding signal (z-score) (Gal(a1-4)Gal(b1-4)GalNAc): -0.17
- glycan array binding signal (z-score) (Gal(a1-4)GlcNAc): -0.246
- glycan array binding signal (z-score) (Gal(a1-6)Glc): -0.198
- glycan array binding signal (z-score) (Gal(b1-2)Gal): -0.149
- glycan array binding signal (z-score) (Gal(b1-3)Gal): -0.005
- glycan array binding signal (z-score) (Gal(b1-3)GalNAc): -0.134
- glycan array binding signal (z-score) [29]: -0.227
- glycan array binding signal (z-score) [30]: -0.163
- glycan array binding signal (z-score) [31]: -0.243
- glycan array binding signal (z-score) [32]: -0.134
- glycan array binding signal (z-score) [33]: -0.177
- glycan array binding signal (z-score) [34]: -0.178
- glycan array binding signal (z-score) [35]: -0.128
- glycan array binding signal (z-score) [36]: -0.217
- glycan array binding signal (z-score) [37]: -0.224
- glycan array binding signal (z-score) [38]: -0.197
